Measurements taken from publication PMC4336329 (PLoS ONE, 2015).
Hit rate of the full screen: of about 310,000 compounds, about 2,200 (0.71%) showed an effect of 50% or more. The effect is printed as a negative number. Some of the results follow.

What follows are molecules tested against human ether-à-go-go-related gene (hERG) potassium channel (human, UniProt Q12809) (assay: primary screen, population patch clamp on CHO cells stably expressing hERG).
human ether-à-go-go-related gene (hERG) potassium channel, sequence (Q12809 whole entry, looked up): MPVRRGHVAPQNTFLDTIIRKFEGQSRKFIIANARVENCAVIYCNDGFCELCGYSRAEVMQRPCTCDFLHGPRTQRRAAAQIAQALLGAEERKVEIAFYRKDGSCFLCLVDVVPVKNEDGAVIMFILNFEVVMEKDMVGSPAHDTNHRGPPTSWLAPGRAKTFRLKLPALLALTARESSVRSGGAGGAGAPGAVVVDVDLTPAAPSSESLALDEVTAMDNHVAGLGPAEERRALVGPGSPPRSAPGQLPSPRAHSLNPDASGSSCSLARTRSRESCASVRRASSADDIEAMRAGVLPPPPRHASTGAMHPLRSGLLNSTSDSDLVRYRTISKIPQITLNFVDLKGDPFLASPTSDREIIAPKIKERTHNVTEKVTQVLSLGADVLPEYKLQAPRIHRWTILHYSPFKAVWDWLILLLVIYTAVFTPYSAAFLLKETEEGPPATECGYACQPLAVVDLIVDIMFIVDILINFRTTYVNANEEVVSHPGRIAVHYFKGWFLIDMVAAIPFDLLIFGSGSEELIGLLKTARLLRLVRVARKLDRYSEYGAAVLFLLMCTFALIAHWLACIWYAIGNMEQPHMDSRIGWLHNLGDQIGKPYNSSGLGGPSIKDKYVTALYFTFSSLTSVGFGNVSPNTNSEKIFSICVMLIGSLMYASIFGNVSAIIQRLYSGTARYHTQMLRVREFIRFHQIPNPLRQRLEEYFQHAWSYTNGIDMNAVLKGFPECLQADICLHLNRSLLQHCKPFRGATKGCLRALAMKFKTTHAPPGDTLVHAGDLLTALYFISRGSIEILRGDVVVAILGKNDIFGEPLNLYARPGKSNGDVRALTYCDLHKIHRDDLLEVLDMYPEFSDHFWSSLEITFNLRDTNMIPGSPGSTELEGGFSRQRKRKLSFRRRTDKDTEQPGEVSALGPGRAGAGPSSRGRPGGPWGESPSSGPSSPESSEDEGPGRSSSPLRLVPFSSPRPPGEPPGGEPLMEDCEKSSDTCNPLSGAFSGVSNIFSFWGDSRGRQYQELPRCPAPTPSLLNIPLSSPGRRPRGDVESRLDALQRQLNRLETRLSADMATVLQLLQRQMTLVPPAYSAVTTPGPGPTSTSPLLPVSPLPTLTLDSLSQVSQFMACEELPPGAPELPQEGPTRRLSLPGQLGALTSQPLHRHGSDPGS

| Compound | hERG current change (%, negative = inhibition) at 1uM |
| --- | --- |
| CSCC[C@H](NC(=O)c1cc2c([nH]c3ccccc32)c(-c2ccccc2)n1)C(=O)O | 12.9% |
| O=C(NC1CC1)c1ccc(CS(=O)(=O)c2c(Cl)cccc2Cl)o1 | -0.0108% |
| NS(=O)(=O)c1ccc(CNC(=O)c2cc(=O)c3ccccc3o2)cc1 | 9.66% |
| CCn1ncc(/C=N/NC(=O)c2cc(Cl)ccc2OC)c1C | -0.985% |
| C=CCn1c(-c2ccc3[nH]c(C)c(C)c3c2)n[nH]c1=S | 6.92% |
| Cn1c(O)c(N=Nc2nc(-c3ccccc3)cs2)c2ccccc21 | 0.0848% |
| CN(C)S(=O)(=O)c1cccc(NC(=O)c2cncc(Br)c2)c1 | 5.36% |
| CCOC(=O)C(NS(=O)(=O)c1ccccc1)(C(F)(F)F)P(=O)(OC(C)C)OC(C)C (centres unmarked) | 19.2% |
| N#C/C(=C\c1cccnc1)C(=O)Nc1ccc(SC(F)F)cc1 | 9.66% |
| Cc1cc(NC(=O)c2ccccc2)n(-c2nc3ccccc3[nH]2)n1 | 16% |
| Cc1nn(CC(=O)c2ccccc2)c(=O)c2nn(-c3ccccc3F)c(C)c12 | 13.9% |
| Cc1ccc(C(=O)N2CCN(Cc3ccc4c(c3)OCO4)CC2)cc1S(=O)(=O)N1CCOCC1 | 0.748% |
| Cc1cc(N2CCN(c3nnnn3-c3ccccc3)CC2)n2ncnc2n1 | -29.6% |
| COc1cccc(/C=C2\SC(=O)N(CCC(=O)NC3CCS(=O)(=O)C3)C2=O)c1 (centres unmarked) | 13.2% |
| O=C(COC(=O)c1ccc(O)cc1)Nc1cccc(S(=O)(=O)N2CCCCC2)c1 | -3.31% |
| CC(=O)N1CCCN(Cc2nc(C3(c4ccc(C)cc4)CCCC3)no2)CC1 | 19.3% |
| Cc1ccc(/C=N/c2sc3c(c2C#N)CCC3)o1 | 6.51% |
| O=C(/C=C/c1ccccc1Cl)N1CCCN(C(=O)/C=C/c2ccccc2Cl)CC1 | -19.7% |
| COc1ccc(Cl)cc1C(=O)NCc1ccco1 | 8.96% |
| COc1ccc(N2CCN(C(=O)CN3C(=O)NC4(CCCc5ccccc54)C3=O)CC2)cc1 (centres unmarked) | 2.48% |
| COc1ccc(N(C)S(=O)(=O)c2cccc3cccnc23)c(OC)c1 | 11.3% |
| O=c1c(Br)c(N2CCOCC2)cnn1-c1ccccc1 | 15.2% |
| COc1ccccc1-n1c(SCC(=O)N2CCCCC2)nc(O)c(Cc2ccccc2)c1=O | 14.1% |
